We go through 24 molecules from ChEMBL document CHEMBL4888484, “Replenishing the malaria drug discovery pipeline: Screening and hit evaluation of the MMV Hit Generation Library 1 (HGL1) against asexual blood stage Plasmodium falciparum ,using a nano luciferase reporter read-out” (2022).

In all, about 150,000 compounds went through this assay and about 540 (0.36%) showed an effect of 50% or more. Some of the results follow.

The % Inhibition is the change of the read-out against control, counted positive when it falls.

The subject of this assay is Plasmodium falciparum. The assay is described as follows: Primary screen in NF54 nanoGlo assay, in single point, at 2uM, 72h; a lower Z score goes with more inhibition. The assay is classed as functional, Erythrocyte. The following applies: timepoint 72 hour.
Turning to `CCCNC(=O)CCC(=O)N1CCC(c2ccccn2)CC1`, the “% Inhibition” value is 17% and the Z score is -2.19.

`C[C@@]12CCC3C[C@@]1(C(=O)Nc1cccnc1)OC[C@@]32C`: the “% Inhibition” value is recorded as -16% and the Z score is on record as 2.01.

Regarding `COc1ccc(Cc2ncnn2CCO)c(OC)c1`, the “% Inhibition” value stood at 0% and the Z score worked out at 0.09.

With `CCN1c2cc(C)ccc2-n2cccc2C12CCN(C(=O)Nc1cc(F)ccc1F)CC2`, the “% Inhibition” value is recorded as -7% and the Z score is reported as 0.93.

For the molecule `O=C(Cn1c(=O)c2cc(C3CC3)nn2c2ncccc21)Nc1ccccc1`, the “% Inhibition” value is on record as -15% and the Z score is listed as 1.62.

As to `CCc1nnsc1C(=O)N[C@H]1CCOc2ccccc21`, the “% Inhibition” value is given as -3% and the Z score worked out at 0.44.

In the case of `COc1cc(C(=O)Nc2cnoc2C(C)C)on1`, the “% Inhibition” value came to 18% and the Z score is on record as -2.12.

`CN1C(=O)C[C@H](NS(=O)(=O)Cc2ccc(F)cc2C#N)C1=O`: the “% Inhibition” value was -6% and the Z score is listed as 1.01.

For `Cc1nn(C)cc1CN(C)c1ccc(C(C)C)nn1`, the “% Inhibition” value was 10% and the Z score is given as -1.97.

For `Cc1nnsc1CN(C)C(=O)c1ccc(F)cc1`, the “% Inhibition” value is reported as -18% and the Z score was found to be 2.66.

For `CCc1cc(C#N)ccc1NC(=O)N(C)C1CCS(=O)(=O)CC1`, the “% Inhibition” value is -10% and the Z score is listed as 1.96.

On to `CCCc1[nH]nc(-c2cccs2)c1NC(=O)c1ccc(F)cc1F`, for which the “% Inhibition” value stood at 0% and the Z score is listed as -0.02.

For the molecule `O=c1ccc(-c2ccc(S(=O)(=O)Nc3cccc(Cl)c3)o2)n[nH]1`, the “% Inhibition” value turned out to be 15% and the Z score is -1.74.

For `O=C(NCc1nc2c(s1)CCCC2)Nc1cnc2c(c1)COCC2`, the “% Inhibition” value is listed as -1% and the Z score is given as 0.16.

With `CCOC1CC(O)(CNC(C)c2ccccn2)C1(C)C` (stereo not drawn), the “% Inhibition” value was -9% and the Z score stood at 1.02.

Take `CCN(CC1CCOCC1)c1nc(C)nc2oc(C)nc12`: the “% Inhibition” value is on record as -10% and the Z score was found to be 1.81.

Consider `CC(C)N(Cc1nccn1C)C(=O)c1cn(CC2CCCCC2)nn1`, for which the “% Inhibition” value is -5% and the Z score came out at 0.72.

In the case of `Cc1sc2nc(-c3ccccn3)nc(NCC(=O)N3CCC(O)CC3)c2c1-c1ccccc1`, the “% Inhibition” value is recorded as 25% and the Z score is given as -2.12.

`CCc1cnc(CC(=O)N2CCC(=O)N3CCC[C@@H]32)[nH]1`: the “% Inhibition” value was 6% and the Z score is on record as -1.27.

With `Cc1n[nH]cc1CN(C)[C@@H](C)C(=O)Nc1ccccn1`, the “% Inhibition” value was determined as 6% and the Z score was -0.61.

Turning to `CCN(Cc1cccnc1)C(=O)C(=O)c1ccccc1`, the “% Inhibition” value worked out at 21% and the Z score is listed as -1.99.

As to `CC(C)CCOc1cccc(CCNC(=O)N2CC[C@H](N(C)C)[C@@H](O)C2)c1`, the “% Inhibition” value is on record as -9% and the Z score is reported as 1.58.

With `COc1cc(Cl)c(C)cc1NC(=O)c1cnn(-c2ccccc2)c1C1CCN(C(=O)OC(C)(C)C)CC1`, the “% Inhibition” value was 2% and the Z score was -0.34.

For `CC(C)(C)OCc1cc(C(=O)N[C@H]2COCC2(C)C)no1`, the “% Inhibition” value turned out to be 4% and the Z score was -0.72.
